According to the supplement of paper PMC8728848:
The other results are listed elsewhere or left out.

Tests used:
Assay in all cases: glycan array binding signal (z-score within array); higher = stronger binding
Details in all cases: glycan notation: IUPAC condensed, linker removed
[1] = biological target: GalNAc3S(b1-4)GlcNAc3S
Outline: (§1)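 Glycan array data were curated from 3228 arrays in the Consortium for Functional Glycomics database and kept only where the protein sequence was available. Glycan names were converted to IUPAC-condensed notation, and columns mapping to the same glycan were averaged. The binding signal is a within-array Z-score, averaged across arrays of the same protein sequence at different concentrations or buffers and across linkers. Negative Z-scores can be read as non-binding.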

[2] = biological target: GalNAc3S(b1-4)[Fuc(a1-3)]GlcNAc
Outline: as §1

[3] = biological target: GalNAc4S6S(b1-4)GlcNAc
Outline: as §1

[4] = biological target: GalNAc6S(b1-4)GlcNAc
Outline: as §1

[5] = biological target: Glc(a1-4)Glc
Outline: as §1

[6] = biological target: Glc(a1-4)Glc(a1-4)Glc(a1-4)Glc
Outline: as §1

[7] = biological target: Glc(a1-6)Glc(a1-6)Glc
Outline: as §1

[8] = biological target: Glc(a1-6)Glc(a1-6)Glc(a1-6)Glc
Outline: as §1

[9] = biological target: Glc(b1-4)Glc
Outline: as §1

[10] = biological target: Glc(b1-6)Glc
Outline: as §1

[11] = biological target: GlcA(b1-3)Gal
Outline: as §1

[12] = biological target: GlcA(b1-3)GlcNAc
Outline: as §1

[13] = biological target: GlcA(b1-6)Gal
Outline: as §1

[14] = biological target: GlcA3S(b1-3)Gal(b1-4)GlcNAc(b1-2)Man
Outline: as §1

[15] = biological target: GlcA3S(b1-3)Gal(b1-4)GlcNAc(b1-3)Gal(b1-4)Glc
Outline: as §1

[16] = biological target: GlcNAc(a1-3)Gal(b1-4)GlcNAc
Outline: as §1

[17] = biological target: GlcNAc(a1-4)Gal(b1-3)GlcNAc
Outline: as §1

[18] = biological target: GlcNAc(a1-4)Gal(b1-4)GalNAc
Outline: as §1

[19] = biological target: GlcNAc(a1-4)Gal(b1-4)GlcNAc
Outline: as §1

[20] = biological target: GlcNAc(a1-4)Gal(b1-4)GlcNAc(b1-3)Gal(b1-4)Glc
Outline: as §1

[21] = biological target: GlcNAc(a1-4)Gal(b1-4)GlcNAc(b1-3)Gal(b1-4)GlcNAc
Outline: as §1

[22] = biological target: GlcNAc(a1-4)Gal(b1-4)GlcNAc(b1-3)Gal(b1-4)GlcNAc(b1-3)Gal(b1-4)GlcNAc
Outline: as §1

[23] = biological target: GlcNAc(a1-4)Gal(b1-4)GlcNAc(b1-3)Gal(b1-4)[Fuc(a1-3)]GlcNAc(b1-3)Gal(b1-4)[Fuc(a1-3)]GlcNAc
Outline: as §1

[24] = biological target: GlcNAc(a1-6)Gal(b1-4)GlcNAc
Outline: as §1

[25] = biological target: GlcNAc(b1-2)Gal(b1-3)GalNAc
Outline: as §1

[26] = biological target: GlcNAc(b1-2)Man(a1-3)[GlcNAc(b1-2)Man(a1-6)]Man(b1-4)GlcNAc(b1-4)GlcNAc
Outline: as §1

[27] = biological target: GlcNAc(b1-2)Man(a1-3)[GlcNAc(b1-2)Man(a1-6)]Man(b1-4)GlcNAc(b1-4)[Fuc(a1-6)]GlcNAc
Outline: as §1

[28] = biological target: GlcNAc(b1-2)Man(a1-3)[GlcNAc(b1-4)][GlcNAc(b1-2)Man(a1-6)]Man(b1-4)GlcNAc(b1-4)GlcNAc
Outline: as §1

[29] = biological target: GlcNAc(b1-2)Man(a1-3)[GlcNAc(b1-4)][GlcNAc(b1-2)Man(a1-6)]Man(b1-4)GlcNAc(b1-4)[Fuc(a1-6)]GlcNAc
Outline: as §1

[30] = biological target: GlcNAc(b1-2)[GlcNAc(b1-4)]Man(a1-3)[GlcNAc(b1-2)Man(a1-6)]Man(b1-4)GlcNAc(b1-4)GlcNAc
Outline: as §1

[31] = biological target: GlcNAc(b1-2)[GlcNAc(b1-4)]Man(a1-3)[GlcNAc(b1-4)][GlcNAc(b1-2)Man(a1-6)]Man(b1-4)GlcNAc(b1-4)GlcNAc
Outline: as §1

[32] = biological target: GlcNAc(b1-2)[GlcNAc(b1-4)]Man(a1-3)[GlcNAc(b1-4)][GlcNAc(b1-2)[GlcNAc(b1-6)]Man(a1-6)]Man(b1-4)GlcNAc(b1-4)GlcNAc
Outline: as §1

[33] = biological target: GlcNAc(b1-2)[GlcNAc(b1-4)]Man(a1-3)[GlcNAc(b1-4)][GlcNAc(b1-2)[GlcNAc(b1-6)]Man(a1-6)]Man(b1-4)GlcNAc(b1-4)[Fuc(a1-6)]GlcNAc
Outline: as §1

[34] = biological target: GlcNAc(b1-2)[GlcNAc(b1-6)]Man(a1-6)[GlcNAc(b1-2)Man(a1-3)]Man(b1-4)GlcNAc(b1-4)GlcNAc
Outline: as §1

[35] = biological target: GlcNAc(b1-2)[GlcNAc(b1-6)]Man(a1-6)[GlcNAc(b1-2)Man(a1-3)]Man(b1-4)GlcNAc(b1-4)[Fuc(a1-6)]GlcNAc
Outline: as §1

[36] = biological target: GlcNAc(b1-2)[GlcNAc(b1-6)]Man(a1-6)[GlcNAc(b1-4)][GlcNAc(b1-2)Man(a1-3)]Man(b1-4)GlcNAc(b1-4)GlcNAc
Outline: as §1

[37] = biological target: GlcNAc(b1-3)Fuc
Outline: as §1

[38] = biological target: GlcNAc(b1-3)Gal
Outline: as §1

B1: Als1 (Candida albicans), P46590 (protein)
chain: KTITGVFDSFNSLTWSNAANYAFKGPGYPTWNAVLGWSLDGTSANPGDTFTLNMPCVFKYTTSQTSVDLTADGVKYATCQFYSGEEFTTFSTLTCTVNDALKSSIKAFGTVTLPIAFNVGGTGSSTDLEDSKCFTAGTNTVTFNDGDKDISIDVEFEKSTVDPSGYLYASRVMPSLNKVTTLFVAPQCENGYTSGTMGFSSSNGDVAIDCSNIHIGITKGLNDWNYPVSSESFSYTKTCTSNGIQIKYQNVPAGYRPFIDAYISATDVNQYTLAYTNDYTCAGSRLQSKPFTLRWTGYKNSDAGSNGIVIVATTRTVTDSTTAVTTLPFNPSVDKTKTIEILQPIPTTTITTSYVGVTTSYLTKTAPIGETATVIVDVPYHTTTTVTSEWTGTITTTTTRTNPTDSIDTVVVQVP
- glycan array binding signal (z-score) [1]: -0.181
- glycan array binding signal (z-score) [2]: -0.443
- glycan array binding signal (z-score) [3]: -0.157
- glycan array binding signal (z-score) [4]: -0.164
- glycan array binding signal (z-score) [5]: 0.329
- glycan array binding signal (z-score) [6]: 0.492
- glycan array binding signal (z-score) [7]: -0.246
- glycan array binding signal (z-score) [8]: -0.341
- glycan array binding signal (z-score) [9]: 1.05
- glycan array binding signal (z-score) [10]: 1.43
- glycan array binding signal (z-score) [11]: -0.385
- glycan array binding signal (z-score) [12]: 0.319
- glycan array binding signal (z-score) [13]: -0.568
- glycan array binding signal (z-score) [14]: -0.192
- glycan array binding signal (z-score) [15]: 0.175
- glycan array binding signal (z-score) [16]: -0.244
- glycan array binding signal (z-score) [17]: 0.256
- glycan array binding signal (z-score) [18]: 0.307
- glycan array binding signal (z-score) [19]: -0.228
- glycan array binding signal (z-score) [20]: -0.414
- glycan array binding signal (z-score) [21]: -0.287
- glycan array binding signal (z-score) [22]: -0.362
- glycan array binding signal (z-score) [23]: 0.471
- glycan array binding signal (z-score) [24]: -0.491
- glycan array binding signal (z-score) [25]: -0.623
- glycan array binding signal (z-score) [26]: -0.365
- glycan array binding signal (z-score) [27]: 0.767
- glycan array binding signal (z-score) [28]: -0.554
- glycan array binding signal (z-score) [29]: -0.648
- glycan array binding signal (z-score) [30]: -0.625
- glycan array binding signal (z-score) [31]: 0.441
- glycan array binding signal (z-score) [32]: -0.508
- glycan array binding signal (z-score) [33]: -0.407
- glycan array binding signal (z-score) [34]: 0.276
- glycan array binding signal (z-score) [35]: 0.632
- glycan array binding signal (z-score) [36]: -0.481
- glycan array binding signal (z-score) [37]: -0.431
- glycan array binding signal (z-score) [38]: 4.47
